According to the supplement of paper PMC4604168 (melanoma cell lines):
The list shows a part of the results. Repeats are few or missing, and single values can be far off.

tested on: COLO792; experiment: cell count relative to DMSO control; melanoma cells; higher = more viable cells; conditions: library dose: standard library concentration; 72 h
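Also: cells treated in 1,536-well plates, then fixed and DAPI-stained, with nuclei counted from automated high-throughput microscope images.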

| SMILES | cell count |
| --- | --- |
| COc1cc([C@@H]2c3cc4c(cc3[C@@H](O[C@@H]3O[C@@H]5CO[C@@H](C)O[C@H]5[C@H](O)[C@H]3O)[C@H]3COC(=O)[C@H]23)OCO4)cc(OC)c1O [etoposide] + NC(=O)Nc1cc(-c2cccc(F)c2)sc1C(=O)N[C@H]1CCCNC1 [AZD7762] (first compound 0.1 µM, partner dose 0.1 µM) | 45.2% |
| CCN(CC)CCNC(=O)c1c(C)[nH]c(/C=C2\C(=O)Nc3ccc(F)cc32)c1C [sunitinib] + Nc1ccn([C@@H]2O[C@H](CO)[C@@H](O)C2(F)F)c(=O)n1 [gemcitabine] (first compound 2 µM, partner dose 0.002 µM) | 49.9% |
| C[C@]1(O)C[C@@H](c2nc(-c3ccc4ccc(-c5ccccc5)nc4c3)c3c(N)nccn32)C1 + O=C(O)c1ccc2c(c1)nc(Nc1cccc(Cl)c1)c1ccncc12 [CX4945] (first compound 2 µM, partner dose 2 µM) | 72.8% |
| COc1cc([C@@H]2c3cc4c(cc3[C@@H](O[C@@H]3O[C@@H]5CO[C@@H](C)O[C@H]5[C@H](O)[C@H]3O)[C@H]3COC(=O)[C@H]23)OCO4)cc(OC)c1O [etoposide] + CS(=O)(=O)c1ccc(C(=O)Nc2ccc(Cl)c(-c3ccccn3)c2)c(Cl)c1 [vismodegib] (first compound 0.1 µM, partner dose 5 µM) | 83.4% |
| Cn1cnc2c(F)c(Nc3ccc(Br)cc3Cl)c(C(=O)NOCCO)cc21 [selumetinib] + COC(=O)c1sccc1S(=O)(=O)Nc1ccc(Nc2ccccc2)cc1OC [GSK0660] (first compound 0.075 µM, partner dose 5 µM) | 86.5% |
| CCN(CC)CCNC(=O)c1c(C)[nH]c(/C=C2\C(=O)Nc3ccc(F)cc32)c1C [sunitinib] + COc1cc(Nc2ncc(F)c(Nc3ccc4c(n3)NC(=O)C(C)(C)O4)n2)cc(OC)c1OC [Tamatinib] (first compound 2 µM, partner dose 2 µM) | 33.8% |
| Cn1cnc2c(F)c(Nc3ccc(Br)cc3Cl)c(C(=O)NOCCO)cc21 [selumetinib] + CC(C)(C)c1cnc(CSc2cnc(NC(=O)C3CCNCC3)s2)o1 [SNS-032] (first compound 0.075 µM, partner dose 0.05 µM) | 59.4% |
| C[C@]1(O)C[C@@H](c2nc(-c3ccc4ccc(-c5ccccc5)nc4c3)c3c(N)nccn32)C1 + CCN(CC)CCNC(=O)c1c(C)[nH]c(/C=C2\C(=O)Nc3ccc(F)cc32)c1C [sunitinib] (first compound 2 µM, partner dose 2 µM) | 40.5% |
| COc1cc([C@@H]2c3cc4c(cc3[C@@H](O[C@@H]3O[C@@H]5CO[C@@H](C)O[C@H]5[C@H](O)[C@H]3O)[C@H]3COC(=O)[C@H]23)OCO4)cc(OC)c1O [etoposide] + O=C(Nc1cccc(Cl)c1)Nc1ncc(CCNc2ncnc3ccsc23)s1 [SNS314] (first compound 0.1 µM, partner dose 0.004 µM) | 50.6% |
| CCN(CC)CCNC(=O)c1c(C)[nH]c(/C=C2\C(=O)Nc3ccc(F)cc32)c1C [sunitinib] + CCCS(=O)(=O)Nc1ccc(F)c(C(=O)c2c[nH]c3ncc(Cl)cc23)c1F [PLX4720] (first compound 2 µM, partner dose 0.4 µM) | 76.3% |
| C[C@]1(O)C[C@@H](c2nc(-c3ccc4ccc(-c5ccccc5)nc4c3)c3c(N)nccn32)C1 + Nc1cccc2c1CN(C1CCC(=O)NC1=O)C2=O [lenalidomide] (first compound 2 µM, partner dose 5 µM) | 134% |
| Cn1cnc2c(F)c(Nc3ccc(Br)cc3Cl)c(C(=O)NOCCO)cc21 [selumetinib] + CCc1ccc(CCOc2ccc(CC3SC(=O)NC3=O)cc2)nc1 [pioglitazone] (first compound 0.075 µM, partner dose 10 µM) | 71.1% |
| CCN(CC)CCNC(=O)c1c(C)[nH]c(/C=C2\C(=O)Nc3ccc(F)cc32)c1C [sunitinib] + CCCCCCCCc1ccc(CCC(N)(CO)CO)cc1 [fingolimod] (first compound 2 µM, partner dose 10 µM) | 3.37% |
| CCN(CC)CCNC(=O)c1c(C)[nH]c(/C=C2\C(=O)Nc3ccc(F)cc32)c1C [sunitinib] + NCC(=O)Nc1ccc(-n2nc(C(F)(F)F)cc2-c2ccc3c(ccc4ccccc43)c2)cc1 [OSU03012] (first compound 2 µM, partner dose 5 µM) | 57.3% |
| Cn1cnc2c(F)c(Nc3ccc(Br)cc3Cl)c(C(=O)NOCCO)cc21 [selumetinib] + O=C(O)C(=O)Nc1sc2c(c1C(=O)O)CCNC2 [TCS401] (first compound 0.075 µM, partner dose 8.33333 µM) | 82.9% |
| COc1cc([C@@H]2c3cc4c(cc3[C@@H](O[C@@H]3O[C@@H]5CO[C@@H](C)O[C@H]5[C@H](O)[C@H]3O)[C@H]3COC(=O)[C@H]23)OCO4)cc(OC)c1O [etoposide] + C=C(c1ccc(C(=O)O)cc1)c1cc2c(cc1C)C(C)(C)CCC2(C)C [Bexarotene] (first compound 0.1 µM, partner dose 10 µM) | 106% |
| C[C@]1(O)C[C@@H](c2nc(-c3ccc4ccc(-c5ccccc5)nc4c3)c3c(N)nccn32)C1 + C=C(c1ccc(C(=O)O)cc1)c1cc2c(cc1C)C(C)(C)CCC2(C)C [Bexarotene] (first compound 2 µM, partner dose 10 µM) | 62.2% |
| C[C@]1(O)C[C@@H](c2nc(-c3ccc4ccc(-c5ccccc5)nc4c3)c3c(N)nccn32)C1 + NC1(c2ccc(-c3nc4ccn5c(=O)[nH]nc5c4cc3-c3ccccc3)cc2)CCC1 [MK2206] (first compound 2 µM, partner dose 2 µM) | 54.2% |
| COc1cc([C@@H]2c3cc4c(cc3[C@@H](O[C@@H]3O[C@@H]5CO[C@@H](C)O[C@H]5[C@H](O)[C@H]3O)[C@H]3COC(=O)[C@H]23)OCO4)cc(OC)c1O [etoposide] + Cn1c(Nc2ccc(C(F)(F)F)cc2)nc2cc(Oc3ccnc(-c4ncc(C(F)(F)F)[nH]4)c3)ccc21 [CHIR265] (first compound 0.1 µM, partner dose 0.4 µM) | 21.6% |
| Cn1cnc2c(F)c(Nc3ccc(Br)cc3Cl)c(C(=O)NOCCO)cc21 [selumetinib] + O=c1cc(-c2cccc3c2Sc2ccccc2S3)oc(N2CCOCC2)c1 [KU55933] (first compound 0.075 µM, partner dose 5 µM) | 79.8% |
| C[C@]1(O)C[C@@H](c2nc(-c3ccc4ccc(-c5ccccc5)nc4c3)c3c(N)nccn32)C1 + Nc1ncn([C@H]2C[C@H](O)[C@@H](CO)O2)c(=O)n1 [decitabine] (first compound 2 µM, partner dose 0.5 µM) | 92.5% |
| COc1cc([C@@H]2c3cc4c(cc3[C@@H](O[C@@H]3O[C@@H]5CO[C@@H](C)O[C@H]5[C@H](O)[C@H]3O)[C@H]3COC(=O)[C@H]23)OCO4)cc(OC)c1O [etoposide] + O=C(Nc1ccccc1)c1cc([N+](=O)[O-])ccc1Cl [GW9662] (first compound 0.1 µM, partner dose 10 µM) | 83.1% |
| CCN(CC)CCNC(=O)c1c(C)[nH]c(/C=C2\C(=O)Nc3ccc(F)cc32)c1C [sunitinib] + NC1(c2ccc(-c3nc4ccn5c(=O)[nH]nc5c4cc3-c3ccccc3)cc2)CCC1 [MK2206] (first compound 2 µM, partner dose 2 µM) | 28.6% |
| Cn1cnc2c(F)c(Nc3ccc(Br)cc3Cl)c(C(=O)NOCCO)cc21 [selumetinib] + COCC[n+]1c2c(n(Cc3cnccn3)c1C)C(=O)c1ccccc1C2=O [YM155] (first compound 0.075 µM, partner dose 0.002 µM) | 55% |
| Cn1cnc2c(F)c(Nc3ccc(Br)cc3Cl)c(C(=O)NOCCO)cc21 [selumetinib] + NC1(c2ccc(-c3nc4ccn5c(=O)[nH]nc5c4cc3-c3ccccc3)cc2)CCC1 [MK2206] (first compound 0.075 µM, partner dose 2 µM) | 29.8% |
| COc1cc([C@@H]2c3cc4c(cc3[C@@H](O[C@@H]3O[C@@H]5CO[C@@H](C)O[C@H]5[C@H](O)[C@H]3O)[C@H]3COC(=O)[C@H]23)OCO4)cc(OC)c1O [etoposide] + COc1cc(Nc2ncc(F)c(Nc3ccc4c(n3)NC(=O)C(C)(C)O4)n2)cc(OC)c1OC [Tamatinib] (first compound 0.1 µM, partner dose 2 µM) | 43.5% |
| Cn1cnc2c(F)c(Nc3ccc(Br)cc3Cl)c(C(=O)NOCCO)cc21 [selumetinib] + CC(C)C[C@H](NC(=O)[C@H](Cc1ccccc1)NC(=O)c1cnccn1)B(O)O [Bortezomib] (first compound 0.075 µM, partner dose 0.005 µM) | 26.4% |
| COc1cc([C@@H]2c3cc4c(cc3[C@@H](O[C@@H]3O[C@@H]5CO[C@@H](C)O[C@H]5[C@H](O)[C@H]3O)[C@H]3COC(=O)[C@H]23)OCO4)cc(OC)c1O [etoposide] + Oc1nc(-c2ccc(C(F)(F)F)cc2)nc2c1CSCC2 [XAV939] (first compound 0.1 µM, partner dose 10 µM) | 74.2% |
| COc1cc([C@@H]2c3cc4c(cc3[C@@H](O[C@@H]3O[C@@H]5CO[C@@H](C)O[C@H]5[C@H](O)[C@H]3O)[C@H]3COC(=O)[C@H]23)OCO4)cc(OC)c1O [etoposide] + COc1ccc(C2=N[C@@H](c3ccc(Cl)cc3)[C@@H](c3ccc(Cl)cc3)N2C(=O)N2CCNC(=O)C2)c(OC(C)C)c1 [Nutlin-3] (first compound 0.1 µM, partner dose 0.5 µM) | 113% |
